Data as given in patent US9255256.

Target: T1, human P450 reductase fused at its N-terminus to the bacterial pelB leader sequence, P16435
T1 chain: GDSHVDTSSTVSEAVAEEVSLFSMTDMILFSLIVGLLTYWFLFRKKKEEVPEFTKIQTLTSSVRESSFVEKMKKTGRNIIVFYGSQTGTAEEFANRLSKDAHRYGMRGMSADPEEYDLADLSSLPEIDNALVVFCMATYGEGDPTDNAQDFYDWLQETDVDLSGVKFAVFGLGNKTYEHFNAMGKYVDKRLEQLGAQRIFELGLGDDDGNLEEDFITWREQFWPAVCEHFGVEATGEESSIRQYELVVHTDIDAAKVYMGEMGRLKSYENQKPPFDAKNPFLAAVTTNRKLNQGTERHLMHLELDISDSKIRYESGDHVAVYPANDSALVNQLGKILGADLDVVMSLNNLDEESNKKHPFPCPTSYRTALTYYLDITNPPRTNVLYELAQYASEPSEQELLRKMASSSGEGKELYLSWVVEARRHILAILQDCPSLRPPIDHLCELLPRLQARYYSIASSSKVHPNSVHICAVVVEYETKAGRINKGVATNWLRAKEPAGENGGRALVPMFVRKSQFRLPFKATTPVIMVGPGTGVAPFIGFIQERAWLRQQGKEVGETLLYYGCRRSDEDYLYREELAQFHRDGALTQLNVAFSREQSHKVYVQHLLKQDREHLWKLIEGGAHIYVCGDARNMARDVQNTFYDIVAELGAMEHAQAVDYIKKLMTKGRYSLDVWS

B1: 17α-CYP3A4 (optimised CYP3A4 expressed from NF14 / pB216) (protein)
chain: MALIPDLAMETWLLLAVSLVLLYLYGTHSHGLFKKLGIPGPTPLPFLGNILSYHKGFCMFDMECHKKYGKVWGFYDGQQPVLAITDPDMIKTVLVKECYSVFTNRRPFGPVGFMKSAISIAEDEEWKRLRSLLSPTFTSGKLKEMVPIIAQYGDVLVRNLRREAETGKPVTLKDVFGAYSMDVITSTSFGVNIDSLNNPQDPFVENTKKLLRFDFLDPFFLSITVFPFLIPILEVLNICVFPREVTNFLRKSVKRMKESRLEDTQKHRVDFLQLMIDSQNSKETESHKALSDLELVAQSIIFIFAGYETTSSVLSFIMYELATHPDVQQKLQEEIDAVLPNKAPPTYDTVLQMEYLDMVVNETLRLFPIAMRLERVCKKDVEINGMFIPKGVVVMIPSYALHRDPKYWTEPEKFLPERFSKKNKDNIDPYIYTPFGSGPRNCIGMRFALMNMKLALIRVLQNFSFKPCKETQIPLKLSLGGLLQPEKPVVLKVESRDGTVSGA
  erythromycin N-demethylase turnover, JM109 pB216 membranes: 2.3 min^-1
  nifedipine oxidase turnover, JM109 pB216 membranes: 12.7 min^-1
  nifedipine oxidase turnover, membranes, two plasmid system (nmol formed per minute per nmol CYP3A4): 9.1
  testosterone 6β-hydroxylase turnover, JM109 pB216 membranes: 25.5 min^-1
  testosterone 6β-hydroxylase turnover, membranes, two plasmid system (nmol formed per minute per nmol CYP3A4): 4.9

B2: ompA-CYP3A4 (protein)
chain: ALIPDLAMETWLLLAVSLVLLYLYGTHSHGLFKKLGIPGPTPLPFLGNILSYHKGFCMFDMECHKKYGKVWGFYDGQQPVLAITDPDMIKTVLVKECYSVFTNRRPFGPVGFMKSAISIAEDEEWKRLRSLLSPTFTSGKLKEMVPIIAQYGDVLVRNLRREAETGKPVTLKDVFGAYSMDVITSTSFGVNIDSLNNPQDPFVENTKKLLRFDFLDPFFLSITVFPFLIPILEVLNICVFPREVTNFLRKSVKRMKESRLEDTQKHRVDFLQLMIDSQNSKETESHKALSDLELVAQSIIFIFAGYETTSSVLSFIMYELATHPDVQQKLQEEIDAVLPNKAPPTYDTVLQMEYLDMVVNETLRLFPIAMRLERVCKKDVEINGMFIPKGVVVMIPSYALHRDPKYWTEPEKFLPERFSKKNKDNIDPYIYTPFGSGPRNCIGMRFALMNMKLALIRVLQNFSFKPCKETQIPLKLSLGGLLQPEKPVVLKVESRDGTVSGA
  nifedipine oxidase turnover, membranes, two plasmid system (nmol formed per minute per nmol CYP3A4): 8.8
  testosterone 6β-hydroxylase turnover, membranes, two plasmid system (nmol formed per minute per nmol CYP3A4): 2.5

B3: ompA(+2)-CYP3A4 (protein)
chain: APALIPDLAMETWLLLAVSLVLLYLYGTHSHGLFKKLGIPGPTPLPFLGNILSYHKGFCMFDMECHKKYGKVWGFYDGQQPVLAITDPDMIKTVLVKECYSVFTNRRPFGPVGFMKSAISIAEDEEWKRLRSLLSPTFTSGKLKEMVPIIAQYGDVLVRNLRREAETGKPVTLKDVFGAYSMDVITSTSFGVNIDSLNNPQDPFVENTKKLLRFDFLDPFFLSITVFPFLIPILEVLNICVFPREVTNFLRKSVKRMKESRLEDTQKHRVDFLQLMIDSQNSKETESHKALSDLELVAQSIIFIFAGYETTSSVLSFIMYELATHPDVQQKLQEEIDAVLPNKAPPTYDTVLQMEYLDMVVNETLRLFPIAMRLERVCKKDVEINGMFIPKGVVVMIPSYALHRDPKYWTEPEKFLPERFSKKNKDNIDPYIYTPFGSGPRNCIGMRFALMNMKLALIRVLQNFSFKPCKETQIPLKLSLGGLLQPEKPVVLKVESRDGTVSGA
  nifedipine oxidase turnover, membranes, two plasmid system (nmol formed per minute per nmol CYP3A4): 11.1
  testosterone 6β-hydroxylase turnover, membranes, two plasmid system (nmol formed per minute per nmol CYP3A4): 9.9
